Variants at the background level are over-represented here.

B1: TPR 5TU (parent)
chain: GGAUCUUCUCGAUCUAACAAAAAAGACAAAUCUGCCACAAAGCUUGAGAGCAUCUUCGGAUGCAGAGGCGGCAGCCUUCGGUGGCGCGAUAGCGCCAACGUUCUCAACUAUGACACGCAAAACGCGUGCUCCGUUGAAUGGAGUUUAUCAUG

Variants of B1 are the subject of the data set. Put plainly: polymerase ribozyme fitness, log enrichment relative to wild type (log ratio); higher = more active; in vitro selection for triplet polymerase activity. The method in brief:
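In triplicate, a single round of in vitro selection was run on each mutant library, PCR-built and transcribed, covering one subunit of a heterodimeric triplet polymerase ribozyme. Frozen incubation at −7 °C followed annealing with a biotinylated primer, partner subunit and triplets, and extended constructs were then gel-excised, streptavidin-captured and taken through RT-PCR. Fitness is the logarithm of genotype enrichment over wild-type enrichment, from inverse-variance-weighted replicate averages of Illumina-sequenced inputs and outputs. […] only genotypes with ≥10 input reads and ≥1 read per output were kept.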
Turning to U6A A12C G58U A91C A98U C103G C131U, the “polymerase ribozyme fitness (log ratio)” value was at most -4.2. The result for U6G A20U A21C A22C A37C G128U reads at most -4.2.

Turning to U6G C27A A41U A64G C96U C103G G136C, the “polymerase ribozyme fitness (log ratio)” value is at most -4.2. As for U6A A41C U45A A49G G59U G86A, the “polymerase ribozyme fitness (log ratio)” value is at most -4.2. The same measure for U6C G68U C69G C85U: at most -4.2; for U6A C76G C87G C93G A137U: at most -4.2; for U6A A91C C114G: at most -4.2. The same measure for U6A C27A G62A A66U C69U C93G: at most -4.2; for U6G G59A C85G C96A U134A G143U: at most -4.2; for U6A A106G G117C A147U: -0.278.

In the case of U6A C43A G94U U148C, the “polymerase ribozyme fitness (log ratio)” value is at most -4.2.

With U6G A12U A22U A64U G88C C95U, the “polymerase ribozyme fitness (log ratio)” value is at most -4.2. With C5U C85G, the “polymerase ribozyme fitness (log ratio)” value was -1.7. The same measure for U6A G11U A29U U44A G62A G80C C99G G143U: at most -4.2; for U6G A12U U15G C43G A52U G58A: at most -4.2; for U6C A22U G42U U45G C85G C99A G141A: at most -4.2. Regarding U6G A40G U78C U82G G94U U144A, the “polymerase ribozyme fitness (log ratio)” value was at most -4.2. The same measure for U6G A22U C85A: -0.601.

For U6C U61A G68C G84A G88U A121G G124A G141U U148C, the “polymerase ribozyme fitness (log ratio)” value is at most -4.2. The result for U6G A17G U33G G86C A89U A120C G141A reads at most -4.2; that for C5U U7G A29C A49G G50C C76A C87U C131A G133A U145G, at most -4.2. The result for U6G G48C A89C A91G A107C reads at most -4.2; that for U6C A26C A28G, -3.84; that for U6A A23C G68U G100U C131U G143U, at most -4.2. The result for U6G A22G A24U A41C G141A G143U reads at most -4.2; that for U6G A20U G48C U77C C85U G86C U146C, at most -4.2; that for C5U U77G G80C C96U, at most -4.2.

Consider U6A A26C G59A G67A C69A G80C G81C G84U U134G U144C, for which the “polymerase ribozyme fitness (log ratio)” value is at most -4.2. The same measure for U6C C27U U33A A73G U90A G92A C105G A121G A137C U146G: at most -4.2; for U6G A19U G50C G88U C99G: at most -4.2; for U6G A16C G25U A39C A41C G42C G59U U78A A150G: at most -4.2. The same measure for U6G C63U G83U A98U A122U: -0.875. The result for U6C A23U C35U G68A G94C U111C C114A reads at most -4.2; that for U6A A41C G50C G84A A119G, -3.27.

Turning to U6G A40C G42C C43A U82C C96A A97U G128A, the “polymerase ribozyme fitness (log ratio)” value was at most -4.2. The result for U6A U61C C85G G136A A142G reads at most -4.2.

For U6C U77A C87G A97U A98C, the “polymerase ribozyme fitness (log ratio)” value was at most -4.2. The result for U6G C8G G11U A16G U56A A73C C95U reads at most -4.2. The same measure for C5U U55G U145C U146A U151G: at most -4.2; for U6G G59A G92A C95A C105U: -4.19; for U6A G11U C54G C87G C95G: at most -4.2. The result for C5U U6G C79G reads at most -4.2; that for U6G C32G U45C A49G C95A, at most -4.2; that for C5U C85G G133C U135C, at most -4.2.

Regarding C5U G84A U90C A121U G126C U134G A137G, the “polymerase ribozyme fitness (log ratio)” value is at most -4.2. The result for U6A A26G U77C U78G G94A C96U A138U reads at most -4.2; that for U6G C14G A19C A52G G86C C87U U111G G140U, at most -4.2. The same measure for U6A A28C U44A G92U G100C C125U G143C U146A: at most -4.2. U6C A21U U101A U104A U148A: the “polymerase ribozyme fitness (log ratio)” value was at most -4.2. The result for U6A A19U A41G G42A C75G C99G A122C reads at most -4.2. The same measure for U6G C85U C103A C131G G136U: at most -4.2; for U6C C54G C93A C116G G141A: -4.17; for C5U U7A G88U U148C A150C: at most -4.2. The same measure for U6A U31C A60U C87A G140C: at most -4.2.

As to U6C A47C C85A, the “polymerase ribozyme fitness (log ratio)” value is -3.96.

Regarding U6C C18G A20G A40U G68U G92A A97G, the “polymerase ribozyme fitness (log ratio)” value was at most -4.2. The result for U6G A20C A22G A26C C57A C87A A120G reads at most -4.2; that for U6G C54A A64G C103G C123G G141A, at most -4.2; that for U6A G80C C96U G141C U146C, at most -4.2. The result for U6G G58C C131A reads -2.15; that for U6G G50C U56A G65A A73C C96U U139C, at most -4.2.

Consider U6G C36A U56G C87G U90G U144G C149U, for which the “polymerase ribozyme fitness (log ratio)” value was at most -4.2.

Take U6A U55A G74C: the “polymerase ribozyme fitness (log ratio)” value is at most -4.2.

Turning to U6C A23G A91U A106G, the “polymerase ribozyme fitness (log ratio)” value is at most -4.2. The same measure for U6A C54A C93G: at most -4.2. The result for U6G C14G G48U U55A A60U G83U G92C C108A U134A G140U U146G reads at most -4.2; that for U6G A16G A21G A73G U82G G84U C87G A107U A119C, at most -4.2; that for U6A A41G G86U C87U G143A, at most -4.2. The result for U6G G42C U61C C93U U111G U148A C149A reads at most -4.2. Consider U6C U15C C32U U45A C87U G88A, for which the “polymerase ribozyme fitness (log ratio)” value was at most -4.2. The same measure for U6G G11U A19C G50A C114U G141A: at most -4.2. The result for U6C C63U A138G reads -4.08; that for U6G A39G G86U U90C A110G, at most -4.2; that for U6A A64G C72U A73G A91U, at most -4.2. The result for C5U G65U A91U A137U U146G reads at most -4.2; that for C5U U45A U82G G83U C114U, at most -4.2.

Take U6G A17G A26U G59C C96A G126C A137G: the “polymerase ribozyme fitness (log ratio)” value was at most -4.2.

Turning to U6C C14G A40C A52U A91U, the “polymerase ribozyme fitness (log ratio)” value was at most -4.2. For C5U G84A C105U A113C C129A, the “polymerase ribozyme fitness (log ratio)” value was at most -4.2.

On to U6A C18U A28G C51U C85G U104A U109G, for which the “polymerase ribozyme fitness (log ratio)” value is at most -4.2. As to C5U G92A C114U, the “polymerase ribozyme fitness (log ratio)” value was -3.86.

Take C5U C38G A66U G94C: the “polymerase ribozyme fitness (log ratio)” value was at most -4.2. The same measure for U6A A17G C18G C85G C95G A110U C123U: at most -4.2. The same measure for U6C A17U A26U A73G U77C C85A G88C A91C G100C C105G C118A: at most -4.2.

(Values after the RNAGym collection of RNA variant scans (doi:10.1073/pnas.2313332121).)
